From PubChem BioAssay AID256 (DTP/NCI, 2004)
Inconclusive results and toxic doses are left out. Not every entry of the source has a single result; some have several. They are shown here; other results are not. The source may hold further records. Values given together differ, and nothing given here explains why; they may come from other doses, times, organisms or constructs than stated.

System: CD2F1 mice, L1210 leukemia ip, survival T/C
Test: NCI In Vivo Anticancer Drug Screen. Data for tumor model L1210 Leukemia (intraperitoneal) in CD2F1 (CDF1) mice
Conditions: endpoint: mean survival time; dose: 150.0 mg/kg/injection; schedule: Q04DX003 (ip); vehicle: saline; higher = longer survival
Summary of the method: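 Compound-dosed mice with transplantable tumor versus matched vehicle controls; endpoint ratio T/C reported.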

CCn1cnc2c(=S)nc[nH]c21
T/C: 123 % of control and 151 % of control
